The supplement of paper PMC11876631
± gives the standard deviation of the averaged measurements. Laboratory Escherichia coli strains with one amino-acid change in an essential protein, pooled on minimal glucose agar with carbenicillin or gentamicin at twice the control MIC (plus kanamycin and chloramphenicol for the plasmids), 48 h. Fold change of barcode share against drug-free plates; higher = less susceptible. Active = above 20 in both replicates (the paper's putatively resistant). '<' = one read or none on drug, '>' = one read or none on a drug-free plate. Shares are relative, so most strains fall below 1 when a few take over. Listed are strains with at least 15 reads on both drug-free plates, and hits; most hits rest on fewer reference reads. Replicate rank correlation about 0.5. Edits are read from barcodes.

B1: lipA L76D (protein)
chain: MSKPIVMERGVKYRDADKMALIPVKNVATEREALLRKPEWMKIKLPADSTRIQGIKAAMRKNGLHSVCEEASCPNDAECFNHGTATFMILGAICTRRCPFCDVAHGRPVAPDANEPVKLAQTIADMALRYVVITSVDRDDLRDGGAQHFADCITAIREKSPQIKIETLVPDFRGRMDRALDILTATPPDVFNHNLENVPRIYRQVRPGADYNWSLKLLERFKEAHPEIPTKSGLMVGLGETNEEIIEVMRDLRRHGVTMLTLGQYLQPSRHHLPVQRYVSPDEFDEMKAEALAMGFTHAACGPFVRSSYHADLQAKGMEVK
B2: lipA F87A (protein)
chain: MSKPIVMERGVKYRDADKMALIPVKNVATEREALLRKPEWMKIKLPADSTRIQGIKAAMRKNGLHSVCEEASCPNLAECFNHGTATAMILGAICTRRCPFCDVAHGRPVAPDANEPVKLAQTIADMALRYVVITSVDRDDLRDGGAQHFADCITAIREKSPQIKIETLVPDFRGRMDRALDILTATPPDVFNHNLENVPRIYRQVRPGADYNWSLKLLERFKEAHPEIPTKSGLMVGLGETNEEIIEVMRDLRRHGVTMLTLGQYLQPSRHHLPVQRYVSPDEFDEMKAEALAMGFTHAACGPFVRSSYHADLQAKGMEVK
B3: leuA I100Q (protein)
chain: MSQQVIIFDTTLRDGEQALQASLSVKEKLQIALALERMGVDVMEVGFPVSSPGDFESVQTIARQVKNSRVCALARCVEKDIDVAAESLKVAEAFRIHTFQATSPMHIATKLRSTLDEVIERAIYMVKRARNYTDDVEFSCEDAGRTPIADLARVVEAAINAGATTINIPDTVGYTMPFEFAGIISGLYERVPNIDKAIISVHTHDDLGLAVGNSLAAVHAGARQVEGAMNGIGERAGNCSLEEVIMAIKVRKDILNVHTAINHQEIWRTSQLVSQICNMPIPANKAIVGSGAFAHSSGIHQDGVLKNRENYEIMTPESIGLNQIQLNLTSRSGRAAVKHRMDEMGYKESEYNLDNLYDAFLKLADKKGQVFDYDLEALAFIGKQQEEPEHFRLDYFSVQSGSNDIATAAVKLACGEEVKAEAANGNGPVDAVYQAINRITEYNVELVKYSLTAKGHGKDALGQVDIVANYNGRRFHGVGLATDIVESSAKAMVHVLNNIWRAAEVEKELQRKAQHNENNKETV
B4: leuA I198Q (protein)
chain: MSQQVIIFDTTLRDGEQALQASLSVKEKLQIALALERMGVDVMEVGFPVSSPGDFESVQTIARQVKNSRVCALARCVEKDIDVAAESLKVAEAFRIHTFIATSPMHIATKLRSTLDEVIERAIYMVKRARNYTDDVEFSCEDAGRTPIADLARVVEAAINAGATTINIPDTVGYTMPFEFAGIISGLYERVPNIDKAQISVHTHDDLGLAVGNSLAAVHAGARQVEGAMNGIGERAGNCSLEEVIMAIKVRKDILNVHTAINHQEIWRTSQLVSQICNMPIPANKAIVGSGAFAHSSGIHQDGVLKNRENYEIMTPESIGLNQIQLNLTSRSGRAAVKHRMDEMGYKESEYNLDNLYDAFLKLADKKGQVFDYDLEALAFIGKQQEEPEHFRLDYFSVQSGSNDIATAAVKLACGEEVKAEAANGNGPVDAVYQAINRITEYNVELVKYSLTAKGHGKDALGQVDIVANYNGRRFHGVGLATDIVESSAKAMVHVLNNIWRAAEVEKELQRKAQHNENNKETV
B5: leuA I199P (protein)
chain: MSQQVIIFDTTLRDGEQALQASLSVKEKLQIALALERMGVDVMEVGFPVSSPGDFESVQTIARQVKNSRVCALARCVEKDIDVAAESLKVAEAFRIHTFIATSPMHIATKLRSTLDEVIERAIYMVKRARNYTDDVEFSCEDAGRTPIADLARVVEAAINAGATTINIPDTVGYTMPFEFAGIISGLYERVPNIDKAIPSVHTHDDLGLAVGNSLAAVHAGARQVEGAMNGIGERAGNCSLEEVIMAIKVRKDILNVHTAINHQEIWRTSQLVSQICNMPIPANKAIVGSGAFAHSSGIHQDGVLKNRENYEIMTPESIGLNQIQLNLTSRSGRAAVKHRMDEMGYKESEYNLDNLYDAFLKLADKKGQVFDYDLEALAFIGKQQEEPEHFRLDYFSVQSGSNDIATAAVKLACGEEVKAEAANGNGPVDAVYQAINRITEYNVELVKYSLTAKGHGKDALGQVDIVANYNGRRFHGVGLATDIVESSAKAMVHVLNNIWRAAEVEKELQRKAQHNENNKETV
B6: ligA V556D (protein)
chain: MESIEQQLTELRTTLRHHEYLYHVMDAPEIPDAEYDRLMRELRELETKHPELITPDSPTQRVGAAPLAAFSQIRHEVPMLSLDNVFDEESFLAFNKRVQDRLKNNEKVTWCCELKLDGLAVSILYENGVLVSAATRGDGTTGEDITSNVRTIRAIPLKLHGENIPARLEVRGEVFLPQAGFEKINEDARRTGGKVFANPRNAAAGSLRQLDPRITAKRPLTFFCYGVGVLEGGELPDTHLGRLLQFKKWGLPVSDRVTLCESAEEVLAFYHKVEEDRPTLGFDIDGVVIKVNSLAQQEQLGFVARAPRWAVAFKFPAQEQMTFVRDVEFQVGRTGAITPVARLEPVHVAGVLVSNATLHNADEIERLGLRIGDKVVIRRAGDVIPQVVNVVLSERPEDTREVVFPTHCPVCGSDVERVEGEAVARCTGGLICGAQRKESLKHFVSRRAMDVDGMGDKIIDQLVEKEYVHTPADLFKLTAGKLTGLERMGPKSAQNVVNALEKAKETTFARFLYALGIREVGEATAAGLAAYFGTLEALEAASIEELQKVPDVGIVDASHVHNFFAEESNRNVISELLAEGVHWPAPIVINAEEIDSPFAGKTVVLTGSLSQMSRDDAKARLVELGAKVAGSVSKKTDLVIAGEAAGSKLAKAQELGIEVIDEAEMLRLLGS
B7: ligA I289W (protein)
chain: MESIEQQLTELRTTLRHHEYLYHVMDAPEIPDAEYDRLMRELRELETKHPELITPDSPTQRVGAAPLAAFSQIRHEVPMLSLDNVFDEESFLAFNKRVQDRLKNNEKVTWCCELKLDGLAVSILYENGVLVSAATRGDGTTGEDITSNVRTIRAIPLKLHGENIPARLEVRGEVFLPQAGFEKINEDARRTGGKVFANPRNAAAGSLRQLDPRITAKRPLTFFCYGVGVLEGGELPDTHLGRLLQFKKWGLPVSDRVTLCESAEEVLAFYHKVEEDRPTLGFDIDGVVWKVNSLAQQEQLGFVARAPRWAVAFKFPAQEQMTFVRDVEFQVGRTGAITPVARLEPVHVAGVLVSNATLHNADEIERLGLRIGDKVVIRRAGDVIPQVVNVVLSERPEDTREVVFPTHCPVCGSDVERVEGEAVARCTGGLICGAQRKESLKHFVSRRAMDVDGMGDKIIDQLVEKEYVHTPADLFKLTAGKLTGLERMGPKSAQNVVNALEKAKETTFARFLYALGIREVGEATAAGLAAYFGTLEALEAASIEELQKVPDVGIVVASHVHNFFAEESNRNVISELLAEGVHWPAPIVINAEEIDSPFAGKTVVLTGSLSQMSRDDAKARLVELGAKVAGSVSKKTDLVIAGEAAGSKLAKAQELGIEVIDEAEMLRLLGS
B8: ligA V288A (protein)
chain: MESIEQQLTELRTTLRHHEYLYHVMDAPEIPDAEYDRLMRELRELETKHPELITPDSPTQRVGAAPLAAFSQIRHEVPMLSLDNVFDEESFLAFNKRVQDRLKNNEKVTWCCELKLDGLAVSILYENGVLVSAATRGDGTTGEDITSNVRTIRAIPLKLHGENIPARLEVRGEVFLPQAGFEKINEDARRTGGKVFANPRNAAAGSLRQLDPRITAKRPLTFFCYGVGVLEGGELPDTHLGRLLQFKKWGLPVSDRVTLCESAEEVLAFYHKVEEDRPTLGFDIDGVAIKVNSLAQQEQLGFVARAPRWAVAFKFPAQEQMTFVRDVEFQVGRTGAITPVARLEPVHVAGVLVSNATLHNADEIERLGLRIGDKVVIRRAGDVIPQVVNVVLSERPEDTREVVFPTHCPVCGSDVERVEGEAVARCTGGLICGAQRKESLKHFVSRRAMDVDGMGDKIIDQLVEKEYVHTPADLFKLTAGKLTGLERMGPKSAQNVVNALEKAKETTFARFLYALGIREVGEATAAGLAAYFGTLEALEAASIEELQKVPDVGIVVASHVHNFFAEESNRNVISELLAEGVHWPAPIVINAEEIDSPFAGKTVVLTGSLSQMSRDDAKARLVELGAKVAGSVSKKTDLVIAGEAAGSKLAKAQELGIEVIDEAEMLRLLGS
B9: ligA I289A (protein)
chain: MESIEQQLTELRTTLRHHEYLYHVMDAPEIPDAEYDRLMRELRELETKHPELITPDSPTQRVGAAPLAAFSQIRHEVPMLSLDNVFDEESFLAFNKRVQDRLKNNEKVTWCCELKLDGLAVSILYENGVLVSAATRGDGTTGEDITSNVRTIRAIPLKLHGENIPARLEVRGEVFLPQAGFEKINEDARRTGGKVFANPRNAAAGSLRQLDPRITAKRPLTFFCYGVGVLEGGELPDTHLGRLLQFKKWGLPVSDRVTLCESAEEVLAFYHKVEEDRPTLGFDIDGVVAKVNSLAQQEQLGFVARAPRWAVAFKFPAQEQMTFVRDVEFQVGRTGAITPVARLEPVHVAGVLVSNATLHNADEIERLGLRIGDKVVIRRAGDVIPQVVNVVLSERPEDTREVVFPTHCPVCGSDVERVEGEAVARCTGGLICGAQRKESLKHFVSRRAMDVDGMGDKIIDQLVEKEYVHTPADLFKLTAGKLTGLERMGPKSAQNVVNALEKAKETTFARFLYALGIREVGEATAAGLAAYFGTLEALEAASIEELQKVPDVGIVVASHVHNFFAEESNRNVISELLAEGVHWPAPIVINAEEIDSPFAGKTVVLTGSLSQMSRDDAKARLVELGAKVAGSVSKKTDLVIAGEAAGSKLAKAQELGIEVIDEAEMLRLLGS
B10: leuD V12P (protein)
chain: MAEKFIKHTGLPVPLDAANVDTDAIIPKQFLQKVTRTGFGAHLFNDWRFLDEKGQQPNPDFVLNFPQYQGASILLARENFGCGSSREHAPWALTDYGFKVVIAPSFADIFYGNSFNNQLLPVKLSDAEVDELFALVKANPGIHFDVDLEAQEVKAGEKTYRFTIDAFRRHCMMNGLDSIGLTLQHDDAIAAYEAKQPAFMN
B11: leuD L63D (protein)
chain: MAEKFIKHTGLVVPLDAANVDTDAIIPKQFLQKVTRTGFGAHLFNDWRFLDEKGQQPNPDFVDNFPQYQGASILLARENFGCGSSREHAPWALTDYGFKVVIAPSFADIFYGNSFNNQLLPVKLSDAEVDELFALVKANPGIHFDVDLEAQEVKAGEKTYRFTIDAFRRHCMMNGLDSIGLTLQHDDAIAAYEAKQPAFMN

The proteins below were run against Escherichia coli (laboratory strain) (assay: barcode share on antibiotic plates over drug-free plates; higher = less susceptible). Conditions: antibiotic: gentamicin; 2× MIC (MIC 0.45 µg/mL).
Procedure: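 A pool of E. coli strains, each edited to carry one amino-acid change in an essential protein, was grown for 48 h on minimal glucose agar with or without antibiotic; strain barcodes were sequenced; mean of two replicates.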
With B1 the “fold change of barcode share” value was > 851 [active]. With B2 the “fold change of barcode share” value was > 196 [active]. B3 was tested, and the “fold change of barcode share” value was under 0.0143. With B4 the “fold change of barcode share” value was under 0.0182. In the case of B5, the “fold change of barcode share” value is reported as under 0.0187. With B6 the “fold change of barcode share” value was under 0.0221. With B7 the “fold change of barcode share” value was under 0.0199. B8 was tested, and the “fold change of barcode share” value was 0.0269 ± 0.024. For B9, the “fold change of barcode share” value was under 0.014. For B10, the “fold change of barcode share” value was under 0.018. For B11, the “fold change of barcode share” value was 0.137 ± 0.028.
